Measurements taken from patent US20260015418A1 (ABL BIO, published 2026).
Positions count from the first letter of the chain named. Names may count otherwise. Blank lines part the entries; values can stand above or below the binder they belong to.

What was measured:
[1] = biological target: T1, human ROR1 protein (ROR1-His; Sino Biological, Catalog #13968-H08H) (human, UniProt Q01973 in part); assay: SACE ELISA on human ROR1-His
T1 construct: extracellular domain; Bought protein; also called human recombinant ROR1 protein
Method: (§1) As a control group, the BA6xB5 bispecific antibody which comprised the parental clone anti-ROR1 antibody BA6 without removed PTM hotspot, and for the experimental group, the BA6M11xB5 bispecific antibody was utilized, and after storing both samples at 4° C. (normal conditions) and 40° C. (stress conditions) for two weeks, the antibody-antigen binding affinity to human ROR1 and human B7H3 recombinant proteins was evaluated using an ELISA-based solution binding assay. Specifically, 96-well microtiter plates (Nunc-Immuno Plates, NUNC) were coated for 16 hours at 4° C. with 1 μg/ml concentration of human ROR1 protein (ROR1-His; Sino Biological, Catalog #13968-H08H) and human B7-H3 protein (B7H3-His; Sino Biological, Catalog #11188-H08H) in PBS solution, and then the plates were then blocked with 1% (v/v) BSA (bovine serum albumin) at 37° C. for 2 hours to prevent non-specific binding.
(§2) Afterwards, the BA6xB5 and BA6M11xB5 bispecific antibodies stored for two weeks were added to the microtiter plates at the concentrations listed in FIGS. 7a-7d, and their binding ability was analyzed by ELISA as follows. […] The enzymatic reaction was stopped with 0.5 mol/L sulfuric acid, and the absorbance was measured at 450 nm and 650 nm using a microplate reader (Molecular Devices).

[2] = biological target: T2, human B7-H3 protein (B7H3-His; Sino Biological, Catalog #11188-H08H) (human, UniProt Q5ZPR3 29-461); assay: SACE ELISA on human B7-H3-His
T2 construct: Bought protein
T2 sequence (looked up): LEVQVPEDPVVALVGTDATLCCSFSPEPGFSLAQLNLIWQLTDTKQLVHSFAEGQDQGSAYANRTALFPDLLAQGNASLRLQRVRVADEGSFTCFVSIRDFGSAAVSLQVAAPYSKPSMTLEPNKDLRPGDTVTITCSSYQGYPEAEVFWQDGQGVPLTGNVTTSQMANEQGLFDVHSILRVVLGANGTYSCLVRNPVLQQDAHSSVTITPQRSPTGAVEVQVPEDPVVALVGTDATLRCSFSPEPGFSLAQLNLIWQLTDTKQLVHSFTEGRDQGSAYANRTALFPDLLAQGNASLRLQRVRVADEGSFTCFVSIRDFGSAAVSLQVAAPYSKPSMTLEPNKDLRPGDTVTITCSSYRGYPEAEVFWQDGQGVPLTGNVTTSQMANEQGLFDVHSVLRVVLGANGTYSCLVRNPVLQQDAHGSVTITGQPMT
Method: as §1, §2

[3] = biological target: T1, human ROR1 protein (ROR1-His; Sino …); assay: SACE ELISA on human ROR1-His; antibody stored 2 weeks at 4°C
Method: as §1, §2

[4] = biological target: T2, human B7-H3 protein (B7H3-His; Sino …); assay: SACE ELISA on human B7-H3-His; antibody stored 2 weeks at 4°C
Method: as §1, §2

[5] = biological target: T1, human ROR1 protein (ROR1-His; Sino …); assay: SACE ELISA on human ROR1-His; antibody stored 2 weeks at 40°C
Method: as §1, §2

[6] = biological target: T2, human B7-H3 protein (B7H3-His; Sino …); assay: SACE ELISA on human B7-H3-His; antibody stored 2 weeks at 40°C
Method: as §1, §2

[7] = biological target: T1, human ROR1 protein (ROR1-His; Sino …); assay: ELISA, plate coated with ROR1-His (1 ug/ml), detection with HRP-conjugated anti-Fc polyclonal antibody, OD at 450 nm
Method: The ligand binding affinity of the BA6M11 (V205C)-T-PBD monospecific antibody and BA6xB5 (M11) (V205C)-T-PBD bispecific antibody ADCs to human ROR1 recombinant protein was evaluated using an ELISA-based solution binding assay. Specifically, 96-well microtiter plates (Nunc-Immuno Plates, NUNC) were coated for 16 hours at 4° C. with ROR1 protein (ROR1-His; Sino Biological, Catalog #13968-H08H) at a concentration of 1 μg/ml in PBS solution and blocked with 1% (v/v) BSA (bovine serum albumin) at 37° C. for 2 hours to prevent non-specific binding.
Afterwards, the BA6M11 (V205C)-T-PBD monospecific antibody and BA6xB5 (M11) (V205C)-T-PBD bispecific antibody were added to the microtiter plates at the concentrations listed in FIG. 12, and their binding ability was analyzed by ELISA as follows: After incubating at 37° C. for 2 hours, the plates were washed five times with PBS containing 0.05% (v/v) Tween 20, then HRP-conjugated Fc polyclonal antibody reagent (Pierce, Catalog #31413) diluted at a 1:30,000 ratio in 1% (v/v) BSA was added to the washed microtiter plates, incubated for 1 hour at 37° C. to allow the reaction, and used to detect the bound bispecific antibodies. […] The enzymatic reaction was stopped with 0.5 mol/L sulfuric acid, and the absorbance was measured at 450 nm and 650 nm using a microplate reader (Molecular Devices).

[8] = biological target: T3, human ROR1 on cells (NCI-N87, CHOK1-hROR1, AGS, CHO-huROR1-huB7-H3) (human, UniProt Q01973 30-937); assay: flow cytometry on CHO-huROR1-huB7-H3 cells, which show both human ROR1 and human B7-H3, so the value belongs to the binding to both targets together; FITC anti-human IgG, MFI over secondary antibody only
T3 construct: whole, on cells; also called cell surface ROR1
Source text: (§3) To evaluate the cell-binding ability of the anti-ROR1/B7-H3 bispecific antibody, cells expressing both ROR1 and B7-H3 were used to compare the cell-binding ability of the bispecific antibody with that of the monospecific antibodies.
(§4) As a cell line for the comparison of cell-binding ability, CHO-huROR1-huB7-H3 cell line (obtained by transfecting the ROR1-CHO recombinant cell line (BPS Bioscience) with the human B7-H3 gene (Origene) and selecting for the desired gene-inserted single cells using G418), which stably transfected the human ROR1 and human B7-H3 gene to artificially overexpress both human ROR1 and human B7-H3 proteins were used, and analysis was performed using a flow cytometer (LSRFortessa X-20, BD Biosciences). Specifically, after dissociating and washing the overexpressing cell line with PBS, the cell number was counted, and the cells were seeded at a density of 2×10⁵ cells per well into a V-bottom 96-well plate (96 Well Plate-RV, Bioneer, 910D09). Antibodies diluted 4-fold starting from 100 nM in 1% BSA solution were added at 100 μL per well to the centrifuged cells and incubated at 4° C. for 1 hour. […] After the reaction, the cells were washed twice with the same buffer, resuspended in 100 μL of PBS, and analyzed using a FACS instrument. A total of 10,000 cells were detected per measurement, and the data was analyzed using FlowJo software. […]

[9] = biological target: T4, human B7-H3 on CHO-huROR1-huB7-H3 cells (human, UniProt Q5ZPR3 29-534); assay: as above
T4 construct: whole, on cells; also called cell surface B7-H3
T4 sequence (looked up): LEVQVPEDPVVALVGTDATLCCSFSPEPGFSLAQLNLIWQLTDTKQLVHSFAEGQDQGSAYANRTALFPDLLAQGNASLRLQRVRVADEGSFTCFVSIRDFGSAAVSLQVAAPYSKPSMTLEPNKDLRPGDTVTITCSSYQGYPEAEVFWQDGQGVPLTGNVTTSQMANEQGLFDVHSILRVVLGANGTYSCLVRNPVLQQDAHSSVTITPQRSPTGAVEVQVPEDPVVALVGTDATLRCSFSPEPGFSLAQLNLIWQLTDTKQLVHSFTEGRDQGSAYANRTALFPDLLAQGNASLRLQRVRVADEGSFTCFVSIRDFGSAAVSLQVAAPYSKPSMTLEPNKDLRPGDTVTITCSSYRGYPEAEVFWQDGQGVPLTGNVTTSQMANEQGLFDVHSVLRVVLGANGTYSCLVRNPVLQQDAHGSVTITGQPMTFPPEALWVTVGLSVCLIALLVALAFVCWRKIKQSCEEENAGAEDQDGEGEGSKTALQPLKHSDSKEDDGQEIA
Source text: as §3, §4

Ratio(EC50), 4°C sample against 40°C sample [1]: 78%
Ratio(EC50), 4°C sample against 40°C sample [2]: 93%
EC50 [3]: 0.141 nM
EC50 [4]: 0.173 nM
EC50 [5]: 0.18 nM
EC50 [6]: 0.186 nM
B1: BA6xB5 bispecific antibody (control with parental BA6 clone) (bispecific antibody)
heavy: EVQLLESGGGLVQPGGSLRLSCAASGFTFSNYDMSWVRQAPGKGLEWVSAIYHSGSSKYYADSVKGRFTISRDNSKNTLYLQMNSLRAEDTAVYYCARGGNGAWDTGFDYWGQGTLVTVSS[human IgG1 constant region not shown]GGGGSGGGGSGGGGSQSVLTQPPSASGTPGQRVTISCSGSSSNIGSNAVSWYQQLPGTAPKLLIYYNSHRPSGVPDRFSGSKSGTSASLAISGLRSEDEADYYCGSWDASLNAYVFGCGTKLTVLGGGGSGGGGSGGGGSGGGGSEVQLLESGGGLVQPGGSLRLSCAASGFTFSDYAMSWVRQAPGKCLEWVSSISSGSGSIYYADSVKGRFTISRDNSKNTLYLQMNSLRAEDTAVYYCAKNLIPLDYWGQGTLVTVSS
light: QSVLTQPPSASGTPGQRVTISCSGSSSNIGSNDVSWYQQLPGTAPKLLIYYDNNRPSGVPDRFSGSKSGTSASLAISGLRSEDEADYYCGAWDDSLSGYVFGGGTKLTVLGQPKAAPSVTLFPPSSEELQANKATLVCLISDFYPGAVTVAWKADSSPVKAGVETTTPSKQSNNKYAASSYLSLTPEQWKSHRSYSCQVTHEGSTVEKTVAPAECS
notes: only the BA6 variable domains are tied to it by the clone name; also called BA6 × B5

EC50 (read off the curve) [7]: ~0.2 nM
B2: BA6(M11/V205C)xB5-T-PBD bispecific antibody ADC (bispecific antibody)
heavy: B1 heavy with N101S
light: B1 light with D52E, V206C
modifications: chain 2 pos 206 (Kabat V205C): Cys carrying the pyrrolobenzodiazepine (PBD) drug-linker through a thiosuccinimide, written C; DAR 2 (one drug on each light chain)
notes: Antibody-drug conjugate of BA6M11xB5; also called BA6xB5 (M11) (V205C)-T-PBD; BA6(M11/V205C)xB5-PBD (DAR2)

Ratio(EC50), 4°C sample against 40°C sample [1]: 113%
Ratio(EC50), 4°C sample against 40°C sample [2]: 122%
EC50 [3]: 0.152 nM
EC50 [5]: 0.134 nM
EC50 [6]: 0.19 nM
EC50 (read off the curve) [8]: ~5 nM
EC50 (read off the curve) [9]: ~5 nM
B3: BA6M11xB5 anti-ROR1/anti-B7-H3 bispecific antibody (bispecific antibody, human IgG1, lambda)
heavy: B1 heavy with N101S
light: B1 light with D52E
notes: also called BA6M11 × B5; BA6M11(WT)xB5
